Assay results taken from US6534546B1 (Chugai Seiyaku Kabushiki Kaisha, priority 1994, dated 2003).

How the values were obtained:
N-cNOS (Type 1) [1] = target: T1, N-cNOS (Type 1) (Rattus norvegicus, UniProt P29476); assay: biochemical
N-cNOS (Type 1) [2] = target: T1, N-cNOS (Type 1); conditions: for N-cNOS inhibitory potency compared with the existing NOS inhibitors (L-MIN) / selectivity for N-cNOS compared to E-cNOS, compared with the existing NOS inhibitors (L-EIN): conclusion from Tables 49, 50 and 51; for Ratio of IC50 values E-cNOS/N-cNOS / Ratio of IC50 values iNOS/N-cNOS: index of selectivity

Molecule `CCSC(=N)Nc1cccc(C(C)NC)c1` (stereo not shown) [Example 112, N-(1-(3-(S-ethylisothiourido)phenyl)ethyl)methylamine dihydrochloride] has an IC50 (N-cNOS (Type 1) [1]) of 10.8 nM.

Work on `CCSC(=N)Nc1ccc(OC)c(CN)c1` [Example 122, N-(5-(S-ethylisothioureido)-2-methoxyphenylmethyl)amine dihydrochloride] yielded an IC50 (N-cNOS (Type 1) [1]) of 3.8 nM.

In the case of `CCSC(=N)Nc1cccc(CN)c1C.Cl.Cl` [Example 131, N-(3-(S-ethylisothioureido)-2-methylphenylmethyl)amine dihydrochloride], the “N-cNOS inhibitory potency compared with the existing NOS inhibitors (L-MIN)” value (N-cNOS (Type 1) [2]) is reported as “more potent in inhibiting N-cNOS than L-MIN”, the “selectivity for N-cNOS compared to E-cNOS, compared with the existing NOS inhibitors (L-EIN)” value (N-cNOS (Type 1) [2]) is reported as “more selective inhibitory effect on N-cNOS than L-EIN” and the “Ratio of IC50 values E-cNOS/N-cNOS” value (N-cNOS (Type 1) [2]) is reported as 106.9. The “Ratio of IC50 values iNOS/N-cNOS” value (N-cNOS (Type 1) [2]) was 17.4 and the IC50 (N-cNOS (Type 1) [1]) was 4.5 nM.

For `CCSC(=N)Nc1cccc(CN)c1Cl.Cl.Cl` [Example 137, N-(2-chloro-3-(S-ethylisothioureido)phenylmethyl)amine dihydrochloride], the “Ratio of IC50 values E-cNOS/N-cNOS” value (N-cNOS (Type 1) [2]) was 68.3 and the IC50 (N-cNOS (Type 1) [1]) was 7.1 nM.

With `CSC(=N)Nc1cccc(C2(N)CCCC2)c1.Cl.Cl` [Example 151, N-(1-(3-(S-methylisothioureido)phenyl)cyclopentyl)amine dihydrochloride] the “Ratio of IC50 values E-cNOS/N-cNOS” value (N-cNOS (Type 1) [2]) was 7.0 and the IC50 (N-cNOS (Type 1) [1]) was 37.6 nM.

With `CCSC(=N)Nc1cccc(C2(N)CCCC2)c1.Cl.Cl` [Example 153, N-(1-(3-(S-ethylisothioureido)phenyl)cyclopentyl)amine dihydrochloride] the “Ratio of IC50 values E-cNOS/N-cNOS” value (N-cNOS (Type 1) [2]) was 19.0 and the IC50 (N-cNOS (Type 1) [1]) was 22.2 nM.

For `CSC(=N)Nc1cccc(C2(N)CCC2)c1.Cl.Cl` [Example 160, N-(1-(3-(S-methylisothioureido)phenyl)cyclobutyl)amine dihydrochloride], the “Ratio of IC50 values E-cNOS/N-cNOS” value (N-cNOS (Type 1) [2]) was 13.0 and the IC50 (N-cNOS (Type 1) [1]) was 36.6 nM.

For `CCSC(=N)Nc1cccc(C2(N)CCC2)c1.Cl.Cl` [Example 162, N-(1-(3-(S-ethylisothioureido)phenyl)cyclobutyl)amine dihydrochloride], the “Ratio of IC50 values E-cNOS/N-cNOS” value (N-cNOS (Type 1) [2]) was 72.9 and the IC50 (N-cNOS (Type 1) [1]) was 7.9 nM.

With `CCSC(=N)Nc1cccc(C2(N)CC2)c1.Cl.Cl` [Example 167, N-(1-(3-(S-ethylisothioureido)phenyl)cyclopropyl)amine dihydrochloride] the “Ratio of IC50 values E-cNOS/N-cNOS” value (N-cNOS (Type 1) [2]) was 27.5 and the IC50 (N-cNOS (Type 1) [1]) was 13.3 nM.

In the case of `Cl.NC(=N[N+](=O)[O-])Nc1cccc(C2(N)CCCC2)c1` [Example 171, N-(1-(3-(N′-nitroguanidino)phenyl)cyclopentyl)amine hydrochloride], the “N-cNOS inhibitory potency compared with the existing NOS inhibitors (L-MIN)” value (N-cNOS (Type 1) [2]) is reported as “more potent in inhibiting N-cNOS than L-MIN”, the “Ratio of IC50 values E-cNOS/N-cNOS” value (N-cNOS (Type 1) [2]) is reported as 5.8 and the IC50 (N-cNOS (Type 1) [1]) is reported as 5 nM.

With `N=C(Nc1cccc(C2(N)CCC2)c1)N[N+](=O)[O-]` [Example 173, N-(1-(3-(N′-nitroguanidino)phenyl)cyclobutyl)amine hydrochoride] the IC50 (N-cNOS (Type 1) [1]) was 8.2 nM.

With `CCSC(=N)Nc1cccc(C(C)N)c1.Cl.Cl` (stereo not shown) [Example 175, N-(1-(3-(S-ethylisothioureido)phenyl)ethyl)amine dihydrochloride] the “N-cNOS inhibitory potency compared with the existing NOS inhibitors (L-MIN)” value (N-cNOS (Type 1) [2]) was “more potent in inhibiting N-cNOS than L-MIN”, the “selectivity for N-cNOS compared to E-cNOS, compared with the existing NOS inhibitors (L-EIN)” value (N-cNOS (Type 1) [2]) was “more selective inhibitory effect on N-cNOS than L-EIN” and the “Ratio of IC50 values E-cNOS/N-cNOS” value (N-cNOS (Type 1) [2]) was 50.0. It also gave an IC50 (N-cNOS (Type 1) [1]) of 4 nM.

With `CCSC(=N)Nc1cccc(C(N)CC)c1.Cl.Cl` (stereo not shown) [Example 177, N-(1-(3-(S-ethylisothioureido)phenyl)propyl)amine dihydrochloride] the “Ratio of IC50 values E-cNOS/N-cNOS” value (N-cNOS (Type 1) [2]) was 44.0 and the IC50 (N-cNOS (Type 1) [1]) was 11.6 nM.

With `CCSC(=N)Nc1ccc(C(C)(C)CN)cc1.Cl.Cl` [Example 185, N-(2-(4-(S-ethylisothioureido)phenyl)-2-methylpropyl)amine dihydrochloride] the “Ratio of IC50 values E-cNOS/N-cNOS” value (N-cNOS (Type 1) [2]) was 10.6 and the IC50 (N-cNOS (Type 1) [1]) was 299 nM.

`CCSC(=N)Nc1ccc(C(CN)C(=O)OC)cc1.Cl.Cl` (stereo not shown) [Example 226, 3-amino-2-(4-(S-ethylisothioureido)phenyl)propionic acid methyl ester dihydrochloride] was tested, and the “Ratio of IC50 values E-cNOS/N-cNOS” value (N-cNOS (Type 1) [2]) was 24.8 and the IC50 (N-cNOS (Type 1) [1]) was 57.9 nM.

Molecule `CCN=C(N)Nc1ccc(OCc2ccccc2)c(CN)c1` [Example 339, N-(2-benzyloxy-5-(N′-ethylguanidino)phenylmethyl)amine dihydrochloride] has an IC50 (N-cNOS (Type 1) [1]) of 281 nM.

In the case of `CCN=C(N)Nc1ccc(CC)c(CN)c1.Cl.Cl` [Example 466, N-(2-ethyl-5-(N′-ethylguanidino)phenylmethyl)amine dihydrochloride], the “selectivity for N-cNOS compared to E-cNOS, compared with the existing NOS inhibitors (L-EIN)” value (N-cNOS (Type 1) [2]) is reported as “more selective inhibitory effect on N-cNOS than L-EIN”.

`CCN=C(N)Nc1ccc(C)c(CN)c1.Cl.Cl` [Example 473, N-(5-(N′-ethylguanidino)-2-methylphenylmethyl)amine dihydrochloride] was tested, and the “selectivity for N-cNOS compared to E-cNOS, compared with the existing NOS inhibitors (L-EIN)” value (N-cNOS (Type 1) [2]) was “more selective inhibitory effect on N-cNOS than L-EIN”.

`CCSC(N)=NCCC[C@H](N)C(=O)O` [L-EIN, S-ethyl-L-thiocitrulline, reference compound] was tested, and the IC50 (N-cNOS (Type 1) [2]; read-out: IC50 value, N-cNOS (Type 1), mean of one to four independent experiments, crude enzyme, 100 nM L-[3H]arginine) was 8.4 nM.

`CSC(=N)NCCC[C@H](N)C(=O)O` [L-MIN, S-methyl-L-thiocitrulline, reference compound] was tested, and the “N-cNOS inhibitory potency compared with the existing NOS inhibitors (L-MIN)” value (N-cNOS (Type 1) [2]) was “the strongest N-cNOS inhibitory activity in the existing NOS inhibitors”, the “Ratio of IC50 values E-cNOS/N-cNOS” value (N-cNOS (Type 1) [2]) was 26.7 and the “Ratio of IC50 values iNOS/N-cNOS” value (N-cNOS (Type 1) [2]) was 43.4.

Structures can show the parent of a compound that is named as a salt. Where two headings read alike, the source gives them in different places.
